Assay results published in PubChem BioAssay AID1508642 (National Center for Advancing Translational Sciences (NCATS), 2021).
In all, about 43,000 compounds went through this assay and about 200 (0.47%) were called active. Inconclusive results (about 12%) are left out. Calls come from the whole dose curve; as a rule, active = well fitted cell-killing curve with a large enough effect; inconclusive = small, poorly fitted or top-dose-only effect, or effect the other way; inactive = flat fitted curve, though single readings scatter. This is one part of the list.

Test: Cell viability qHTS assay in S16 Pmp22-F2sN cells; note: nearly all actives have a fitted effect of over 65% in size
Settings: S16 Pmp22-F2sN Schwann cells viability, CellTiter-Glo, 24 h; series mostly up to 57.5 µM; activity change, negative = cytotoxicity: at the top concentration
Summary of the method: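 S16 Pmp22-F2sN Schwann cells (500-1,000/well) in phenol-red-free DMEM with 10% FBS received 23 nL compound by pin tool for 24 h at 37 °C. Viability was then read as CellTiter-Glo luminescence after 15 min at room temperature.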
% is set by controls: 0 for no effect and ±100 for the full control effect.

SMILES | activity change, negative = cytotoxicity
Cc1c(Cl)cccc1NC(=O)Cn1cnc2nc3c(cc2c1=O)CCCC3 | inactive: -0.314%
Cc1ccc(-n2ncc3c(N4CCC(Cc5ccccc5)CC4)ncnc32)cc1 | inactive: 10.1%
O=C(c1ccc2c(c1)N(Cc1ccccc1F)C(=O)c1ccccc1S2=O)N1CCOCC1 (configuration not stated) | inactive: 12.5%
CC(C)(C)CC(=O)NC1CC(=O)N(c2ccc3c(c2)OCCO3)C1 (configuration not stated) | inactive: 11.9%
Cc1ccc(CN2CCc3nc(N4CCN(C)CC4)ncc3C2)s1 | inactive: 5.32%
COc1ccc2c(c1)c1c(c(=O)n(-c3ccccc3)c(=O)n1CC(=O)Nc1ccc(C)c(C)c1)n2C | inactive: 8.13%
CN(Cc1ccccc1)S(=O)(=O)c1nnc(NC(=O)c2ccccc2)s1 | inactive: 0.748%
Cc1ccc2c(c1)cc1c(=O)n(CC(=O)N3CCCCC3)nc(C)n12 | inactive: 16.1%
Cc1cccc(N(C)C(=O)CSc2nc3ncccc3o2)c1 | inactive: 4.13%
O=C(NCC1CCCO1)c1c[nH]c2ccc(S(=O)(=O)Nc3cccc(C(F)(F)F)c3)cc2c1=O (configuration not stated) | inactive: -1.77%
CCc1ccc(C(=O)c2cn(CC(=O)Nc3ccc(C)c(C)c3)c3ccccc3c2=O)cc1 | inactive: -13.6%
COc1ccc(OCC(=O)Nc2cccc(-c3nc4ccccc4s3)c2C)cc1 | inactive: 11.1%
O=C(NCCOCCn1c(=O)oc2ccccc21)Nc1ccc(F)cc1 | inactive: -2.56%
Cc1ccc(NC(=O)C2CCN(S(=O)(=O)c3c(C)noc3/C=C/c3ccco3)CC2)cc1C | inactive: 19.9%
Cc1ccc(S(=O)(=O)c2cn(C)c3cc(N4CCCC(C)C4)c(F)cc3c2=O)c(C)c1 (configuration not stated) | inactive: -19.3%
Cc1cc2c(cc1S(=O)(=O)N(CCN(C)C)Cc1ccco1)OCC(=O)N2 | inactive: 9.52%
Cc1nc(N2CCCC2)ncc1C(=O)Nc1ccc(F)cc1F | inactive: 4.58%
COc1ccccc1OCC(=O)Nc1nc(-c2ccc(Br)cc2)ns1 | inactive: 14.5%
CC1CCN(S(=O)(=O)c2ccc3c(c2)CCC(=O)N3CC(=O)Nc2cccc(C#N)c2)CC1 | inactive: 0.885%
CCCCNC(=O)CSc1nnc(C)c2c(C)n(-c3ccccc3)nc12 | inactive: -4.84%
Cc1ccc(Cn2c(C)c(CNCCCc3ccccc3)c(C(=O)O)c2C)cc1 | inactive: 16.1%
Cc1ccc(-c2noc(CNC(=O)c3ccccc3)n2)cc1 | inactive: -0.725%
CCC1CN(C(=O)N2CCC(C(=O)NCc3ccccc3C)CC2)c2ccccc2O1 (configuration not stated) | inactive: -19.2%
Cc1ccc(-c2cc3c(n2-c2ccc(C)cc2)CC(C)(C)CC3=O)cc1 | inactive: 11.3%
Cc1ccc(C2=NN(CC(=O)NCCN(CC(C)C)CC(C)C)C(=O)CC2)cc1 | inactive: 8.06%

SMILES | activity change, negative = cytotoxicity
O=C(CSc1nnc2[nH]c(=O)cc(-c3ccccc3)n12)Nc1ccc(F)cc1F | inactive: -2.36%
Cc1ccc(C2=CC(c3c(F)cccc3Cl)n3ncnc3N2)cc1C (configuration not stated) | inactive: -4.13%
Cc1cc(C)cc(NC(=O)C2CCCN2S(=O)(=O)c2cccc3nsnc23)c1 (configuration not stated) | inactive: -12.7%
CC(=O)Nc1cc(-c2nc3ccccc3s2)ccc1C | inactive: -1.52%
Cc1cccc(-c2noc(-c3ccc(N4CCN(C)CC4)c([N+](=O)[O-])c3)n2)c1 | inactive: 2.42%
COc1ccc(C)cc1NC(=O)c1ccc2c(c1)CCN2S(=O)(=O)c1ccc(Cl)cc1 | inactive: -1.23%
COc1ccc(CNc2nc3c(c(=O)n(C)c(=O)n3C)n2Cc2ccccc2Cl)cc1 | inactive: -2.69%
CCOC(=O)c1ccc(CN(Cc2ccccc2C)S(=O)(=O)c2ccc(C(C)(C)C)cc2)cc1 | inactive: 3.42%
COc1cccc(C2C(C(=O)Nc3ccccc3)=C(C)Nc3nc(-c4ccccc4)nn32)c1OC (configuration not stated) | inactive: -9.98%
CC(C)(C)OC(=O)N1CCC(c2nnc(SCc3ccccc3)o2)CC1 | inactive: 3.52%
Cc1cc(NC(=O)COc2ccccc2)cc(-c2nc3ccccc3o2)c1O | inactive: 8.13%
COc1ccc(-c2noc(-c3ccc(N4CCCCC4C)c([N+](=O)[O-])c3)n2)cc1OC (configuration not stated) | inactive: 11.2%
COc1ccccc1CNC(=O)c1ccc(N2Cc3cccc(OC)c3Oc3ncccc32)s1 | inactive: 1.99%
CCCn1c(-c2cccc(Br)c2)nc2ccccc21 | inactive: 1.25%
Cn1ncc(C(=O)N2CCN(c3ccc(F)cc3)CC2)c1C1CCN(C(=O)OC(C)(C)C)CC1 | inactive: 9.6%
CCCN1C(=O)C(Cc2nc3ccccc3c(=O)n2-c2cccc(C)c2)c2ccccc21 (configuration not stated) | inactive: -0.156%
Cc1cc(C)c2c(=O)cc(C(=O)Nc3sc4c(c3C(=O)NCc3cccnc3)CCCC4)oc2c1 | inactive: 0.484%
COC(=O)c1cc(S(=O)(=O)NCC2CCN(Cc3ccc(C)cc3)CC2)c[nH]1 | inactive: -22.5%
CC(=O)c1cccc(NC(=O)c2ccc(-n3c(C)nnc3C)cc2)c1 | inactive: 0.397%
CCOc1ccc(-n2c(SCC(=O)Nc3ccc(F)cc3)nc3c([nH]c4ccccc43)c2=O)cc1 | inactive: 12.7%
CCC(Sc1nc2nccnc2c(=O)n1Cc1ccc(OC)cc1)C(=O)NC1CCCCC1 (configuration not stated) | inactive: 9.37%
CC(C)n1c(SCC(=O)Nc2ccc(F)cc2)nc2c(oc3ccccc32)c1=O | inactive: -0.114%
CCOc1ccccc1CNC(=O)c1ccc2c(c1)sc1nc(-c3cccc(OC)c3)cn12 | inactive: -8.09%
CC(C)C12CN3CC(C(C)C)(CN(C1)C3c1ccc(OCc3ccccc3)cc1)C2=O (configuration not stated) | inactive: 6.01%
COc1ccc(/C=C/C(=O)Nc2sc3c(c2C(N)=O)CCC(C)C3)cc1OC (configuration not stated) | inactive: 7.94%

SMILES | activity change, negative = cytotoxicity
Cc1ccc2c(c1)N(C(=O)N1CCC(C(=O)NC3CCCCCC3)CC1)CC(C)O2 (configuration not stated) | inactive: 0.823%
COc1cc(NC(=O)Cc2c(C(=O)O)c(C)cn2C)cc(OC)c1 | inactive: 4.99%
CCc1cccc(NC(=O)CSc2ncccc2C(=O)Oc2ccccc2Cl)c1 | inactive: 12.3%
CNC(=O)c1c[nH]c2ccc(S(=O)(=O)Nc3cccc(Cl)c3C)cc2c1=O | inactive: -9.17%
Cc1cc(C)cc(OCc2ccc(C(=O)Nc3ccccc3F)o2)c1 | inactive: 7.81%
CCOC(=O)c1c(NC(=O)c2cc(C)on2)sc(C)c1C | inactive: 3.32%
Cc1ccc(-n2ncc3c(N4CCN(C)CC4)ncnc32)cc1Cl | inactive: -24.1%
CCOc1ccc(NC(=O)CCS(=O)(=O)c2cccc3nonc23)cc1 | inactive: -17.5%
Cc1ccc(CSC2=Nc3ccccc3C3=NC(CC(=O)NC4CCCCC4)C(=O)N23)cc1 (configuration not stated) | inactive: -21.5%
COc1ccc(CNC(=O)c2cc(Nc3ccc(C)cc3C)nc3ccccc23)cc1 | inactive: -4.62%
CCCN(CCC)S(=O)(=O)c1ccc2c(c1)N(CC(=O)NC(C)c1ccccc1)C(=O)CS2 (configuration not stated) | inactive: -8.18%
CCOc1ccc(NC(=O)C2CCCN(S(=O)(=O)c3ccc4[nH]c(=O)ccc4c3)C2)cc1 (configuration not stated) | inactive: 2.46%
Cc1ccc(NC(=O)C(=O)c2cc(C)n(-c3ccc(F)cc3)c2C)cc1C | inactive: -13.6%
COc1cccc(-n2ccn(CC(=O)c3ccc(F)cc3)c(=O)c2=O)c1 | inactive: 23.5%
COc1ccccc1N1CCN(C(=O)CSc2nc3ccccc3nc2Cc2ccccc2)CC1 | inactive: 17.2%
CC(=O)c1ccc(N2C(=O)N(CC(=O)c3ccc(C)cc3)c3ccccc3S2(=O)=O)cc1 | inactive: -0.844%
Cc1ccc2nc(-c3ccc(NC(=O)COc4ccccc4)cc3)sc2c1 | inactive: 12.6%
CCN(c1cccc(C)c1)S(=O)(=O)c1nnc(NC(=O)c2ccccc2Cl)s1 | inactive: -20.4%
COc1ccccc1N1CCN(C(=O)c2cc(-c3ccc(F)cc3)on2)CC1 | inactive: 12.2%
COc1ccc(CCNC(=O)C(=O)NCC(c2ccc3c(c2)OCO3)N2CCOCC2)cc1OC (configuration not stated) | inactive: 0.792%
Cc1cccc(-c2noc(CSc3nc(-c4ccc(F)cc4)cc(=O)[nH]3)n2)c1 | inactive: -2.01%
Cc1cccn2c(=O)c(C(=O)NCCc3ccccc3)c(O)nc12 | inactive: -10.4%
Cc1ccc2nc(CNC(=O)c3ccccc3)[nH]c2c1 | inactive: 2.09%
CCOc1ccc(NC(=O)c2oc3ccccc3c2NC(=O)c2c(F)cccc2F)cc1 | inactive: -3.02%
Cc1ccc(C2=Nc3ccccc3N(CC(=O)NCc3ccccc3Cl)C(=O)C2)cc1C | inactive: -24.8%

SMILES | activity change, negative = cytotoxicity
COc1ccc(N2Cc3cccc(C(=O)Nc4ccc(F)cc4)c3C2=O)cc1 | inactive: -1.69%
COc1ccc(-n2ncc(C(=O)Nc3cccc(C(F)(F)F)c3)c2C2CCN(C(=O)OC(C)(C)C)CC2)cc1 | inactive: 0.415%
CCOCCCN(Cc1ccco1)S(=O)(=O)c1cc2c(cc1C)NC(=O)CO2 | inactive: 0.459%
CC(C)C(=O)NCC(c1ccc2c(c1)OCO2)N1CCN(c2ccccc2)CC1 (configuration not stated) | inactive: -2.17%
Cc1c(C(=O)NCCc2ccc(Cl)cc2)sc2nc3n(c(=O)c12)CCCC3 | inactive: -16.4%
Cc1ccccc1CN1c2ccccc2-c2nc(SCC(=O)NCc3ccccc3)ncc2S1(=O)=O | inactive: -11.1%
COc1cc(OC)c(OC)cc1CNc1sc2c(c1C(=O)Nc1ccccc1OC)CCC2 | inactive: 6.48%
O=C(Nc1ccc2nc(SCC(=O)N3CCc4ccccc43)sc2c1)c1cccc(Cl)c1 | inactive: -0.419%
CN(C(=O)CCS(=O)(=O)c1cc2c(cc1Cl)NC(=O)CO2)C1CCCCC1 | inactive: 18.6%
Cc1nncn1-c1ccc(C(=O)Nc2cc(F)ccc2F)cc1 | inactive: -5.31%
CCN(CC)c1ccc(NC(=O)c2sc3nc4c(cc3c2N)CN(C)CC4)cc1 | inactive: -2.83%
CCn1c(C(=O)N2CCCC(C(=O)N3CCN(c4cc(C)ccc4C)CC3)C2)cc2sccc21 (configuration not stated) | inactive: -2.85%
COc1ccc(-n2c(=O)c3ccccc3n(CC(=O)NCCc3ccc(OC)c(OC)c3)c2=O)cc1 | inactive: -9.73%
Cc1ccccc1CCNC(=O)c1cc2cc(S(=O)(=O)N3CCCCC3)ccc2n1C | inactive: 5.12%
COc1ccc(NC(=O)c2cc3c(=O)n(Cc4cccnc4)ccc3nc2C)cc1OC | inactive: -0.0646%
COc1ccc(Cl)cc1NC(=O)CCCN1C(=O)C(c2ccccc2)Oc2cccnc21 (configuration not stated) | inactive: -13.4%
COc1cc2c(cc1OC)C(COc1cc(C)cc(C)c1)N(C(=O)COc1ccccc1)CC2 (configuration not stated) | inactive: 2.07%
COc1ccc(C)cc1NS(=O)(=O)c1cc2c3c(c1)CC(=O)N3CCC2 | inactive: -5.87%
COc1ccc(NC(=O)CSc2nc3nc(C)c(Cc4ccccc4Cl)c(C)n3n2)cc1OC | inactive: 6.51%
CCn1c(=N)c(C(=O)NC2CCCCC2)cc2c(=O)n3cc(C)ccc3nc21 | inactive: 10.2%
CCC1CN(C(=O)Nc2ccc(C)c(F)c2)c2ccccc2S1 (configuration not stated) | inactive: -17.6%
Cc1cc2c(cc1S(=O)(=O)CCC(=O)NCCc1ccccc1)OCC(=O)N2 | inactive: -0.645%
